# Assay results: PubChem BioAssay AID504332 (National Center for Advancing Translational Sciences (NCATS), 2011)
# Hit rate of the full screen: of about 350,000 compounds, about 31,000 (8.9%) were called active. The shares of active, inactive and inconclusive entries below differ from those in the screen. Calls follow the shape of the dose curve; as a rule, active = well fitted inhibition curve with a large enough effect; inconclusive = small, poorly fitted or top-dose-only effect; inactive = no such curve, though single readings can be large or run the other way. Where the call is inconclusive, the potency comes from a doubtful curve fit.
# Target: Histone-lysine N-methyltransferase EHMT2 (Homo sapiens) (UniProt Q96KQ7)
# Chain of UniProt Q96KQ7 (Q96KQ7 whole entry, looked up): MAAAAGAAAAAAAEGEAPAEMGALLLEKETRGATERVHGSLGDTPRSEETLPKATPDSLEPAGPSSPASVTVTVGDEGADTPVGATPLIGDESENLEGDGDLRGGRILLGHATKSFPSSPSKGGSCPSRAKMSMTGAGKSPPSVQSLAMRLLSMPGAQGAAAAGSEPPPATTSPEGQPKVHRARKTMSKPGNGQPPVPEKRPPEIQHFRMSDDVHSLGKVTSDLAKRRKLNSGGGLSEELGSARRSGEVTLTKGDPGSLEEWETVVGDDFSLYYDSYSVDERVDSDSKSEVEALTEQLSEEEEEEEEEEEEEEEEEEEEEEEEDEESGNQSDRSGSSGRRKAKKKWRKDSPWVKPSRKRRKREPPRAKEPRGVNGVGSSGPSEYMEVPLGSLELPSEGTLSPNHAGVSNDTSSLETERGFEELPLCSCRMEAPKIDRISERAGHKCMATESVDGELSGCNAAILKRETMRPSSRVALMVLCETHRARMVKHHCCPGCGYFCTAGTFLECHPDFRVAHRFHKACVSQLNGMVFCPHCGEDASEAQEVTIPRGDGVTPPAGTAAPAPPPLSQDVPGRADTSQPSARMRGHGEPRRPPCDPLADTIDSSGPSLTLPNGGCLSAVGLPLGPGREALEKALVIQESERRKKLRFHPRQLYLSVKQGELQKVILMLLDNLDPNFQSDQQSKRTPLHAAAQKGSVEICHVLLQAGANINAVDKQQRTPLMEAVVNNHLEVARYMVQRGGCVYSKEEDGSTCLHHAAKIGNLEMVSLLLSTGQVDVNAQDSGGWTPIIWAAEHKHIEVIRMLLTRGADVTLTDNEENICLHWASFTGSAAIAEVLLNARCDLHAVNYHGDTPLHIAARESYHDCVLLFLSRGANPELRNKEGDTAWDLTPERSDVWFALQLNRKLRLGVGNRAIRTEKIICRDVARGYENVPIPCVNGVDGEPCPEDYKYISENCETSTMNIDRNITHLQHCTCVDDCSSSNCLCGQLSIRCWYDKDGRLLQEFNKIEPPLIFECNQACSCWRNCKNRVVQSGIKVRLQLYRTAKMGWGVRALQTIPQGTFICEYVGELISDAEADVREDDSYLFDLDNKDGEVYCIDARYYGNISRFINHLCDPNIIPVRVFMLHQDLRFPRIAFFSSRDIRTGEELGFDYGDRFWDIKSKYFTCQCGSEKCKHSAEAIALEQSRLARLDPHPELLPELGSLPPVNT
# Assay: qHTS Assay for Inhibitors of Histone Lysine Methyltransferase G9a; also: nearly all actives have a fitted effect of over 75% in size
# Details: G9a H3K9 monomethylation, AlphaScreen, 2 h; activity, negative = inhibition: at 59 µM (top of the series) unless noted
# Procedure, shortened: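 Compounds were preincubated with 20 nM G9a for 15 min, after which biotinylated H3K9 peptide (500 nM) and SAM (20 uM) started a 2 h room-temperature reaction. Monomethylated product was quantified by antibody-based AlphaScreen chemiluminescence.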
# % is scaled to controls: 0 for no effect and ±100 for the full control effect; potency is read from the fitted curve at half-maximal effect; tags tell the direction and shape of the fitted curve.
Structure (SMILES),Potency,"activity, negative = inhibition"
NC(=O)c1ccccc1N/C=C/C(=O)c1ccc(Cl)cc1,"inconclusive: 89.1 µM [inhibitor, single point]",–
Cc1ccc(C(=O)COC(=O)c2ccncc2)cc1[N+](=O)[O-],–,inactive: 14.3%
COc1ccc(CNC(=O)CN2C(=O)C3CCCN3c3ncc(Cl)cc32)cc1 (stereo unspecified),"inconclusive: 7.94 µM [inhibitor, single point]",–
Cc1oc(-c2ccccc2)nc1C(=O)Nc1nccs1,"inconclusive: 89.1 µM [inhibitor, single point]",–
CCCCNC(=O)CSc1nc2ccc(NC(=O)CSc3nnc(COc4ccccc4C)n3C)cc2s1,"inconclusive: 28.2 µM [inhibitor, single point]",–
CCC(C(=O)OCC(=O)N(C)c1c(N)n(Cc2ccccc2)c(=O)[nH]c1=O)c1ccccc1 (stereo unspecified),"inconclusive: 89.1 µM [inhibitor, single point]",–
CN1CCN(c2ccc(S(=O)(=O)N3CCCCC3)cc2NC(=O)Cc2ccc(Cl)cc2)CC1,"inconclusive: 44.7 µM [inhibitor, partial curve]",–
c1ccc2c(c1)oc1c(Nc3ccc(CN4CCOCC4)cc3)ncnc12,"inconclusive: 89.1 µM [inhibitor, single point]",–
COC(=O)C1=C(N)c2ccccc2C1(C#N)c1ccccc1 (stereo unspecified),"inconclusive: 79.4 µM [inhibitor, single point]",–
Cc1ccc(OCCN2C(=O)c3ccccc3C2=O)c([N+](=O)[O-])c1,–,inactive: -9.12%
COc1ccc2nc(SC(C)C(=O)NC3CCCC3)[nH]c2c1 (stereo unspecified),–,inactive: -29.9% [at 102 µM]
O=S(=O)([N-]c1nc2ccccc2nc1-[n+]1ccc(Cc2ccccc2)cc1)c1ccc(Br)s1,active: 11.2 µM,–
CCC1Sc2ccc(S(=O)(=O)Nc3ccc(OC)c(OC)c3)cc2NC1=O (stereo unspecified),"inconclusive: 63.1 µM [inhibitor, single point]",–
CC1Cc2ccccc2N1Cc1nc2cc(Cl)ccc2c(=O)[nH]1 (stereo unspecified),"inconclusive: 89.1 µM [inhibitor, single point]",–
Cc1ccc(S(=O)(=O)N2CCC(C(=O)N3CC(C)OC(C)C3)CC2)cc1 (stereo unspecified),"inconclusive: 56.2 µM [inhibitor, partial curve]",–
CCOC(=O)C(CC)n1nnc2sc(-c3ccccc3)cc2c1=O (stereo unspecified),–,inactive: 61.2%
C=CCN1C(=O)c2ccc(C(=O)OCC(=O)N(CC)C3CCS(=O)(=O)C3)cc2C1=O (stereo unspecified),–,inconclusive: -53.3% [inhibitor] [at 2.33 µM]
CC(=O)Nc1ccc(NC(=O)COC(=O)c2ccccn2)cc1,active: 44.7 µM,–

Structure (SMILES),Potency,"activity, negative = inhibition"
O=C(COC(=O)c1c2c(nc3ccccc13)CCN(Cc1ccccc1)C2)Nc1c(F)cccc1F,–,inactive: 14.9%
COC(=O)c1ccc(NC(=O)c2cccc(OC)c2)cc1,"inconclusive: 79.4 µM [inhibitor, partial curve, poor fit]",–
O=C(O)c1cc(S(=O)(=O)N2CCN(c3ccccn3)CC2)ccc1Cl,"inconclusive: 89.1 µM [inhibitor, single point]",–
Nc1c(Cl)cc(S(N)(=O)=O)cc1S(N)(=O)=O,"inconclusive: 50.1 µM [inhibitor, partial curve]",–
N=C(c1cccc([N+](=O)[O-])c1)N1CCCCCC1,–,inactive: 15% [at 102 µM]
O=C(CSc1nnc2n1CCCN2)c1ccc([N+](=O)[O-])cc1,active: 39.8 µM,–
O=C1Nc2ccccc2S/C1=C/NCc1ccccc1Cl,active: 31.6 µM,–
Cc1nnc(NC(=O)C2C3C=CC(O3)C2C(=O)O)s1 (stereo unspecified),–,inconclusive: -96.3% [inhibitor]
COc1ccc(N2CCN(CCNC(=O)c3nnc(Cc4c(F)cccc4Cl)o3)CC2)cc1,–,inconclusive: -67.7% [inhibitor]
COc1ccc(C(=O)N[C@H]2COC(C)(C)O[C@H]2c2ccccc2)cc1,–,inconclusive: -68.6% [inhibitor] [at 2.33 µM]
CS(=O)(=O)c1ccc(C(=O)NCCN2C(=O)S/C(=C\c3cccnc3)C2=O)cc1[N+](=O)[O-],–,inconclusive: -102% [inhibitor]
CC1=C2C(CCS2(=O)=O)CC2(C1)C(=O)OC(C)(C)OC2=O (stereo unspecified),active: 50.1 µM,–
CCOc1ccc(CNC(=O)c2ccc3c(c2)c(C)c(C)n3Cc2ccccc2)cc1OC,"inconclusive: 20 µM [inhibitor, partial curve, poor fit]",–
Cc1ccc2nc3c(nc2c1C)CCCC3,–,inactive: 38.8% [at 0.501 µM]
CCN(CC)S(=O)(=O)c1ccc(NC(=O)CN(c2ccccc2)S(=O)(=O)N(C)C)cc1,–,inactive: -18.6%
CC(=O)N1CCN(CC(=O)Nc2ccc(C)c(F)c2)CC1,"inconclusive: 89.1 µM [inhibitor, single point]",–
COc1ccc(-c2nc3cnc(N4CCOCC4)nc3n(CCC#N)c2=O)cc1,–,inactive: -6.05% [at 12.7 µM]
COc1ccccc1N(CC(=O)N1CCN(c2ccccc2)CC1)S(=O)(=O)c1ccc(C)cc1,"inconclusive: 79.4 µM [inhibitor, single point]",–
